Some of the results follow. Values were computed here from the reads of four pooled replicates and scatter widely.
biological target: T1, Pho4 (S. cerevisiae) (UniProt P07270); assay: relative binding free energy (BET-seq); higher = weaker binding; conditions: reference: library average
T1 sequence: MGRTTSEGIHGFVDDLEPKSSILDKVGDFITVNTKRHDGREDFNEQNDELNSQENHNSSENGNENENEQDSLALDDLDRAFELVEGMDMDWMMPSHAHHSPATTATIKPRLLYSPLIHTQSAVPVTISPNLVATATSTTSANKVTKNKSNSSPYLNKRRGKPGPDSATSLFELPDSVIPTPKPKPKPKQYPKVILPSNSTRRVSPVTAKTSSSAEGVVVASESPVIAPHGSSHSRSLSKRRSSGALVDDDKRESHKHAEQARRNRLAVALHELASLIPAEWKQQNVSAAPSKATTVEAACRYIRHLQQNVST

Sequence	relative binding free energy [kcal/mol]
TACGTCACGTGCTGGT	-0.08
TTTTACACGTGTTAGA	0.04
GGGGTCACGTGGGTAT	0.09
GTAGTCACGTGAATTT	0.29
GCTGACACGTGGGGGT	-0.02
GTATTCACGTGATTGA	0.31
ACGGTCACGTGGCGTG	-0.09
GTGTGCACGTGTTTGT	-0.02
TTTGCCACGTGCCGGT	-0.01
ATTGACACGTGGAGTG	0.05
TTCTTCACGTGGTGTC	0.37
AGGTTCACGTGGACGG	0.19
GGGGGCACGTGGCATT	-0.2
GTGTTCACGTGCGGTA	0.19
GGGGTCACGTGAGTTC	0.46
TGGCACACGTGAGGAT	0.37
TTTTTCACGTGGTCAG	0.24
AGTAGCACGTGGTTAA	-0.24
GGTGGCACGTGAGCCG	0.12
CGCTCCACGTGTTGGG	0.28
GAAGGCACGTGCGGAG	-0.19
GGTGTCACGTGACTGA	0.2
CTGGTCACGTGGGACG	-0.06

Sequence	relative binding free energy [kcal/mol]
AGATTCACGTGAGTAT	0.28
TGTTTCACGTGTGACT	0.23
GTTTTCACGTGGATTA	0.36
GGATACACGTGTGGGC	0.14
GTAGTCACGTGGCAAG	0.05
AGTCACACGTGGGGAA	0.13
GGTTTCACGTGCATGT	0.3
GATTGCACGTGTTGAG	0.1
ATATTCACGTGTTCGA	0.14
TGACGCACGTGTGTGG	-0.2
ATAAGCACGTGAATGG	0.18
AGGCGCACGTGGGTGT	-0.24
TTTTTCACGTGTGCGA	0.31
TGAGGCACGTGTATGA	-0.14
TCTTGCACGTGGTATG	-0.18
GGGCTCACGTGGTCCG	0.38
ATGGTCACGTGTGACT	0.25
CGGTGCACGTGTGGCG	-0.17
GGTTCCACGTGGTTAA	0.15
GTAATCACGTGATGAG	0.19
AGCGTCACGTGTTGGC	0.12
CTTGTCACGTGGTCTT	0.13
GGCGTCACGTGTGCTT	0.17

Sequence	relative binding free energy [kcal/mol]
CAATGCACGTGGCTTG	0.01
TGGCACACGTGGATTT	0.13
TCGTTCACGTGGTTTG	0.23
GATTGCACGTGCTTTT	0.09
ATGCGCACGTGGGGTA	-0.27
TACGTCACGTGATATT	0.22
CAGTGCACGTGGGCGG	-0.3
CGCATCACGTGGTGGT	0.1
AGTTTCACGTGTTATC	0.25
TGAAACACGTGGTTTG	-0.14
AGGATCACGTGTTGTA	0.1
GGAGGCACGTGATGGG	0.03
ATTTGCACGTGTTGGT	0.08
ACAGGCACGTGGGCGG	-0.25
ATTGACACGTGTGCGG	-0.04
AAGGACACGTGACGGG	0.1
ATGTTCACGTGTCTAG	0.18
TATTTCACGTGTGTTA	0.27
TCGGTCACGTGTGGTG	0.09
AGGGTCACGTGAGGCT	0.28
AGTTACACGTGTTGGT	0.12
TATTGCACGTGATACG	0.07
AGTCGCACGTGTTATT	-0.04

Sequence	relative binding free energy [kcal/mol]
TAGAGCACGTGGTGTC	-0.16
AAGGGCACGTGGTCGT	-0.37
TGTAACACGTGAATGT	0.28
ATGGTCACGTGCCAGG	0.06
TAGTGCACGTGTCGGC	0
GGGCACACGTGGTTCG	0.05
CATGTCACGTGTCGGT	0.11
TTGTACACGTGAGGTC	0.21
GTGTTCACGTGCGGTT	0.29
TCATGCACGTGGGGTG	-0.16
ATGGTCACGTGAGATT	0.31
GTGATCACGTGAGGGT	0.33
TATGCCACGTGCTGGG	-0.08
GTGGCCACGTGTCGTG	-0.14
TGGGGCACGTGGGTGA	-0.21
TGGGACACGTGGCCGT	-0.14
AGAGGCACGTGCTGTA	-0.12
TTGTTCACGTGCTGTG	0.19
AGGTGCACGTGCGCGT	-0.29
AAAGTCACGTGGTATT	0.15
TACAACACGTGTGGTT	0.13
AGATACACGTGAGTTG	0.01
AGGTGCACGTGGGAGC	-0.16

Sequence	relative binding free energy [kcal/mol]
ATGGTCACGTGGCAGA	0.07
CGGAACACGTGTGGTA	-0.03
AGTTTCACGTGTACAT	0.18
AGGAGCACGTGATGTA	0.05
AGGATCACGTGTGGGC	0.21
CTAGCCACGTGGGGAG	-0.17
ATGTTCACGTGGAGTC	0.36
GGAATCACGTGGTGTT	0.21
GTGAGCACGTGGGAGT	-0.02
GGTTACACGTGTTATT	0.21
TGGCGCACGTGTTGGG	-0.03
TAGCGCACGTGTAGTT	0.05
TATTTCACGTGGAACT	0.46
TCGGGCACGTGGTTTA	0.01
TTTGGCACGTGAGGTT	0.12
ACTTTCACGTGGAGAG	0.35
ATTGGCACGTGCGGCA	-0.1
GGCTTCACGTGATCGG	0.36
TGGACCACGTGGTTAG	-0.06
GTGGGCACGTGCATGC	-0.2
TCATGCACGTGGTTGG	-0.11
TTACTCACGTGTATAG	0.21
TTTGGCACGTGAACAT	0.13
